Measurements reported in PubChem BioAssay (NCI).
Several values for one entry are separate records, joined by “and”; a condition that tells them apart may be missing. Identical values can stand only once.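 Interpolation was linear, between the two tested concentrations surrounding the appropriate level; five concentrations were tested over 48 hours in 96-well plates. GI50 is the concentration that inhibits growth by half. TGI: total growth inhibition.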 Square brackets hold non-standard residues; d marks the D form. Peptide text beside a SMILES is read from it. * marks the point of attachment. ξ: configuration not given here. ξD = NC(CC(=O)O)C(=O)O; Boc = CC(C)(C)OC(=O)*; Aib = CC(C)(N)C(=O)O; OtBu = CC(C)(C)O*

Tested on: NCI-H322M lung
Assay: inhibition of tumour cell growth, NCI panel, 48 h

Q: CC(C)OP(=O)(OC(C)C)c1ncc(-c2ccc(C(F)(F)F)cc2)c(NC2CCCCCC2)n1 was tested. Which GI50 did it give?
A: > 10 µM

Q: What about the TGI of the same compound?
A: > 10 µM

Q: Which TGI does the source give for OCn1nc2c(C3OCCO3)cc3ccccc3n2c1=S here?
A: > 100 µM

Q: For CCOP(=O)(CN1CCNCCN(CP(=O)(OCC)OCC)CC1)OCC, which TGI is on record?
A: > 100 µM

Q: What does the source list for COc1ccc(-c2nc3c(-c4ccccc4)nc(-c4ccccc4)cn3c2-c2ccc(OC)cc2)cc1?
A: GI50: > 100 µM; TGI: > 100 µM

Q: Which TGI does the source give for Fc1cccc(F)c1C1SCc2nc3cc4ccccc4cc3n21 (stereo unspecified) here?
A: > 100 µM

Q: For COc1ccc(C2=C(c3cn(C)c4ccccc34)C(=O)OC2)cc1OC, which GI50 is on record?
A: 5.37 µM

Q: What about the TGI of the same compound?
A: > 100 µM

Q: With CC12c3c4cccc3Oc3cc(N)cc(c31)Oc1cc(N)cc(c12)O4 as the compound, how does the TGI read?
A: 18.9 µM

Q: For c1ccc2nc(-c3ccc4c(c3)OCO4)ccc2c1, which TGI is on record?
A: > 100 µM

Q: For O=C1CCC/C=C\C[C@H]2C=CC(=O)/C2=C/C[C@H](CCc2cccc(C(F)(F)F)c2)O1, which GI50 is on record?
A: 3.96 µM

Q: And the TGI?
A: 13.3 µM

Q: For O=S(=O)(Nc1ccc(Cl)c(F)c1)c1ccc(-c2cnc(C3CC3)o2)cc1, which GI50 is on record?
A: 3.36 µM

Q: And the TGI?
A: 19.4 µM

Q: For Clc1ccccc1CN1COc2c(cc(Cl)c3cccnc23)C1, which TGI is on record?
A: 16.1 µM

Q: For CC(=O)Nc1ccccc1S(=O)(=O)c1ccccc1, which TGI is on record?
A: > 100 µM

Q: Which results are given for Nc1cc(N)c2nc(-c3ccccc3)c(NCCc3ccc(Cl)c(Cl)c3)nc2c1?
A: GI50: 3.35 µM; TGI: 14.9 µM

Q: With CC(CO)CCNc1ncnc2c1ncn2CCC#N (stereo unspecified) as the compound, how does the TGI read?
A: > 100 µM

Q: How did the TGI turn out when Nc1ncnc2c1ccn2COC(CO)CO was run?
A: > 100 µM

Q: With O=C1CSC(c2ccc([N+](=O)[O-])cc2)N1c1nc(-c2ccc3c(c2)CCCC3)cs1 (stereo unspecified) as the compound, how does the TGI read?
A: > 100 µM

Q: Which TGI does the source give for COc1ccc2cc1Oc1ccc(cc1)CC1c3cc(OC)c(cc3CCN1C)Oc1c(OC)c(OC)cc3c1C(C2)N(C)CC3 (stereo unspecified) here?
A: > 75 µM

Q: CCn1nc(-c2ccc(C(=O)OC)cc2)nc2c(=O)n(C)c(=O)nc1-2 was tested. Which GI50 did it give?
A: 0.32 µM

Q: And the TGI?
A: 1.39 µM

Q: Which TGI does the source give for COC(=O)/C(=N\NC(N)=O)C(C(=O)C(=O)Nc1ccccc1C(=O)OC)c1nc2ccc(C(=O)c3ccccc3)cc2[nH]c1=O (stereo unspecified) here?
A: > 100 µM

Q: How did the TGI turn out when COc1cc2nc3c(=C(C#N)C#N)c4ccccc4n3c(=O)c2cc1OC was run?
A: > 100 µM

Q: With Nc1nc2c(c(=O)[nH]1)CN(CCCN1CCOCC1)CN2 as the compound, how does the TGI read?
A: > 100 µM

Q: How did the TGI turn out when C=Cc1c(C)c(O)cc2c1-c1ccc(O)c(C)c1CC2 was run?
A: 30 µM

Q: With CC(C)C[C@@H](NC(=O)[C@@H](Cc1ccccc1)NC(=O)c1cnccn1)B1Oc2ccc(C[C@H](NC(=O)[C@H](Cc3ccc4c(c3)OB([C@@H](CC(C)C)NC(=O)[C@@H](Cc3ccccc3)NC(=O)c3cnccn3)O4)NC(=O)[C@@H](N)CC3CCC4OB([C@@H](CC(C)C)NC(=O)[C@@H](CC5CCCCC5)NC(=O)C5CNCCN5)OC4C3)C(=O)NCCCC[C@@H]3NC(=O)[C@@H](Cc4ccccc4)NC(=O)[C@H](CC(=O)O)NC(=O)CNC(=O)[C@H](CCCNC(=N)N)NC3=O)cc2O1 (stereo partly specified) as the compound, how does the GI50 read?
A: 0.0744 µM and 0.0122 µM

Q: And the TGI?
A: 0.482 µM

Q: Which TGI does the source give for Nc1nc(N)c2ncn(-c3ccc(Br)cc3)c2n1 here?
A: > 100 µM

Q: COC(=O)C(C)(C)NC(=O)C(C)(C)NC(=O)C(CC(=O)OC(C)(C)C)NC(=O)OC(C)(C)C (stereo unspecified) (Boc-[ξD](OtBu)-[Aib]-[Aib]-OMe) was tested. Which TGI did it give?
A: > 100 µM

Q: O=C1OC(c2ccccc2)=N/C1=C\c1ccc(Br)cc1 was tested. Which TGI did it give?
A: > 100 µM

Q: COc1ccc(-c2nc(N3CCCC3)no2)cc1 was tested. Which TGI did it give?
A: > 100 µM

Q: How did the TGI turn out when COC(=O)/C=C/CC(=O)NS(C)(=O)=O was run?
A: > 10 µM

Q: For CC(=O)/C(=C/n1ccc(=O)[nH]c1=S)C(=O)Nc1ccccc1C, which TGI is on record?
A: > 100 µM

Q: With COC(=O)C1=C(O)C(C(=O)OC)[C@]2(O)[C@@H](C(=O)OC)[C@H]1[C@H](C)[C@@H](c1ccccc1)[C@@H]2C(=O)OC (stereo partly specified) as the compound, how does the TGI read?
A: > 100 µM

Q: CCC1=C(CC)C1(C#N)[N+](=O)[O-] was tested. Which TGI did it give?
A: > 100 µM

Q: How did the TGI turn out when Cc1ccc(Nc2nc3ccccc3c(=O)n2N)cc1 was run?
A: > 100 µM

Q: With N#C/C(=C1C=C/C(=N/O)C(Cl)=C/1)c1ccc(Cl)cc1 as the compound, how does the GI50 read?
A: 14.7 µM

Q: What about the TGI of the same compound?
A: 55.3 µM

Q: Which TGI does the source give for OC1CCCCCCCCCCC1SCCCCl (stereo unspecified) here?
A: > 100 µM

Q: For CC(C)(O)[C@@H]1CC[C@](C)(C2[C@@H](O)C[C@@]3(C)C4C[C@H](OC5OCC(O)C(O)C5O)[C@H]5C(C)(C)[C@@H](OC6OCC(O)C(O)C6OC6OCC(O)C(O)C6O)CC[C@@]56C[C@@]46CC[C@]23C)O1 (stereo partly specified), which TGI is on record?
A: > 100 µM

Q: Which TGI does the source give for N#CCC(=O)N1CCCOCCC1 here?
A: > 100 µM

Q: Cn1c(=O)nc2n(-c3cc(Cl)ccc3Cl)c3ccccc3nc-2c1=O was tested. Which TGI did it give?
A: 19.5 µM

Q: How did the GI50 turn out when N#Cc1cnc(=O)n(C2CC(O)C(CO)O2)c1 (stereo unspecified) was run?
A: > 100 µM

Q: What about the TGI of the same compound?
A: > 100 µM

Q: Which TGI does the source give for S=c1oc(CCCCCCCCc2nn(CNc3ccccc3)c(=S)o2)nn1CNc1ccccc1 here?
A: > 100 µM

Q: Which TGI does the source give for Cc1n[nH]c(=S)n1/N=C/c1ccc(-c2ccc(Cl)cc2)o1 here?
A: > 100 µM

Q: Which results are given for O=C(/C=C\Sc1ccccn1)c1cccc(Br)c1?
A: GI50: 18.1 µM; TGI: 36.4 µM

Q: For C#C[C@@]1(O)[C@@H](CO)O[C@@H](n2cc(Br)c3c(N)ncnc32)[C@@H]1O, which GI50 is on record?
A: 0.348 µM

Q: And the TGI?
A: 5.06 µM

Q: With Cc1nc2c(o1)C(=Nc1ccccc1)c1ccccc1C2=Nc1ccccc1 as the compound, how does the TGI read?
A: > 100 µM

Q: For C[N+]1([O-])CCC(O)(C2CC2)CC1 (stereo unspecified), which TGI is on record?
A: > 100 µM

Q: Which TGI does the source give for COc1cc(/C=C2\CCC/C(=C\c3ccc(OC(=O)CCCCC4CCSS4)c(OC)c3)C2=O)ccc1OC(=O)CCCCC1CCSS1 (stereo unspecified) here?
A: > 100 µM

Q: What does the source list for COc1ccc2c(c1)c1c(C)c3cnccc3c(C)c1n2CCCN?
A: GI50: 0.039 µM and 0.0232 µM; TGI: 0.137 µM and 0.255 µM

Q: With Cc1ccc2cc3c(cc(C)c4ccccc43)c3c2c1CC3 as the compound, how does the GI50 read?
A: > 100 µM

Q: And the TGI?
A: > 100 µM

Q: Which GI50 does the source give for Nc1ccccc1NC(=O)c1ccc(CNC(=O)OCc2cccnc2)cc1 here?
A: 4.78 µM

Q: Cc1noc(C)c1-n1nc2ccc3nonc3c2n1 was tested. Which TGI did it give?
A: > 100 µM

Q: CC1CCC2(OC1)OC1CC3C4CCC5CC(O)CCC5(C)C4CC(=O)OC3(C)C1C2C (stereo unspecified) was tested. Which TGI did it give?
A: > 100 µM

Q: With CC1NOC(=O)C1N=Nc1ccccc1Br (stereo unspecified) as the compound, how does the TGI read?
A: > 100 µM

Q: For O=[N+]([O-])c1ccc2sc(C=Nc3ccc(O)cc3)cc2c1, which TGI is on record?
A: > 100 µM

Q: O=c1[nH]ccc2c1ccn2C1CC(O)C(CO)O1 (stereo unspecified) was tested. Which TGI did it give?
A: > 100 µM

Q: Which TGI does the source give for Cn1cc/c(=N\N=c2/ccn(C)c3ccccc23)c2ccccc21 here?
A: 38 µM

Q: Which GI50 does the source give for CC(=O)Nc1c(Br)cc2c(c1Br)Cc1cc(Br)ccc1-2 here?
A: 4.52 µM

Q: What about the TGI of the same compound?
A: 20.6 µM

Q: For O=C(O)C1CCC(=O)N1C(=O)C(Cl)c1ccccc1 (stereo unspecified), which TGI is on record?
A: > 100 µM

Q: With C=C1C(=O)O[C@@H]2[C@@H]3O[C@@H](C[C@@H]13)[C@](C)(O)CC/C=C(\C)CCC[C@H]2C as the compound, how does the GI50 read?
A: 13.3 µM

Q: What about the TGI of the same compound?
A: 26.6 µM

Q: How did the TGI turn out when CC(=O)OC(C)(C)C1O[C@@]23OC1C[C@@H](C)[C@@H]2[C@@]1(C)CC[C@@]24C[C@@]25CC[C@H](OC2OCC(O)C(O)C2O)C(C)(C)[C@@H]5CCC4[C@]1(C)[C@H]3O (stereo partly specified) was run?
A: 20.9 µM

Q: Which TGI does the source give for Cc1ccc(-c2nc3cc(N4CCN(C)CC4)c(F)cc3[nH]2)cc1 here?
A: 50.8 µM

Q: How did the TGI turn out when CN(C)CCCN1N=Nc2cccc3cccc1c23 was run?
A: > 100 µM

Q: How did the TGI turn out when COC(=O)[C@]1(c2cc3ccccc3[nH]2)CC2CN(C(=O)OCc3ccccc3)C1C=C2OC (stereo partly specified) was run?
A: > 100 µM

Q: What does the source list for COc1ccc2c(c1)O/C(=C\c1ncc([N+](=O)[O-])n1C)C2=O?
A: GI50: 2.54 µM; TGI: 8.27 µM

Q: With C[C@@H](c1ccccc1)C(CC#N)[C@H]1CCC[C@]1(O)C#Cc1ccc2c(c1)OCO2 (stereo partly specified) as the compound, how does the TGI read?
A: 32.3 µM

Q: What does the source list for O=C(NC1CCCCC1)OCc1c(COC(=O)NC2CCCCC2)c(-c2ccc(Cl)c(Cl)c2)n2c1CCC2?
A: GI50: 4.99 µM; TGI: 51.2 µM

Q: How did the TGI turn out when Nc1nc2ccc(NCc3ccc(C(=O)NC(CCC(=O)O)C(=O)O)cc3)cc2c(=O)[nH]1 (stereo unspecified) was run?
A: > 100 µM

Q: Which TGI does the source give for N#CC1=C(N)OC2=C(CCCc3ccccc32)C1c1ccc([N+](=O)[O-])cc1 (stereo unspecified) here?
A: 57.5 µM

Q: How did the TGI turn out when C#CCCCCC#Cc1ccccc1C(=O)C=[N+]=[N-] was run?
A: > 100 µM

Q: For COc1ccccc1/C=C1\C(=O)N(C(=O)c2ccc(NC(C)=O)cc2)N=C1C, which TGI is on record?
A: > 100 µM
